# The antibiotic and cytotoxicity screens of Wong et al. (2023)
# The other results are listed elsewhere or left out.
# Tested on: HSkMC (human skeletal muscle cells)
# Assay: cytotoxicity call (relative viability < 0.9)
# Conditions: 10 µM
row,Compound,cytotoxicity call
1,C[C@H]1CN([C@@H](C)CO)S(=O)(=O)c2ccc(-c3ccncc3)cc2O[C@@H]1CN(C)C(=O)c1cccc(F)c1,inactive
2,C[C@@H]1CN([C@@H](C)CO)C(=O)Cc2cc(NC(=O)Cn3cnnn3)ccc2O[C@@H]1CN(C)CC1CC1,inactive
3,Cc1ccc(S(=O)(=O)N(C)C[C@@H]2Oc3ncc(-c4ccncc4)cc3C(=O)N([C@@H](C)CO)C[C@H]2C)cc1,inactive
4,COc1ccc(COC[C@@H](C)N2C[C@H](C)[C@H](CN(C)S(=O)(=O)c3ccc(Cl)cc3)Oc3ccc(NC(=O)NC(C)C)cc3C2=O)cc1,inactive
5,C[C@@H]1CN([C@@H](C)CO)C(=O)c2cccc(NC(=O)C3CCCCC3)c2O[C@@H]1CN(C)Cc1ccc(Oc2ccccc2)cc1,inactive
6,CN(C)C(=O)c1ccc(-c2cccc(-c3nc(C(=O)NCc4ccccc4)cc4c3[C@@H](CCO)N([S@](=O)C(C)(C)C)C4)c2)cc1,inactive
7,O=C(C[C@H]1C=C[C@@H](NC(=O)CN2CCOCC2)[C@@H](CO)O1)NC1CCCCC1,inactive
8,C[C@H](O)C#Cc1cnc2c(c1)C(=O)N([C@H](C)CO)C[C@@H](C)[C@H](CN(C)C(=O)CN1CCOCC1)O2,inactive
9,CCO[C@@H]1OC(C(=O)N2CCN(Cc3ccccc3)CC2)=C[C@H](c2cn(C(C)=O)c3ccccc23)[C@H]1CCCOC(=O)NCCCCCC(=O)NO,inactive

# Tested on: HepG2
# Assay: cytotoxicity call (relative viability < 0.9)
# Conditions: 10 µM
row,Compound,cytotoxicity call
1,C[C@@H]1CN([C@@H](C)CO)C(=O)c2cc(-c3cccnc3)cnc2O[C@@H]1CN(C)C(=O)Nc1ccc2c(c1)OCO2,inactive
2,O=C(NCc1ccccc1)[C@@H]1c2ccccc2C(=O)N(CC23CC4CC(CC(C4)C2)C3)[C@H]1c1ccc(CO)cc1,inactive
3,COc1ccc(NC(=O)N(C)C[C@@H]2OCCCC[C@@H](C)Oc3ccc(NC(=O)Nc4ccc(C(F)(F)F)cc4)cc3C(=O)N([C@@H](C)CO)C[C@@H]2C)cc1,inactive
4,O=C1NC(=O)[C@H](Cc2ccccc2)N1,inactive
5,O=C(CCCCCNC(=O)OCc1ccc(CO[C@H]2C[C@@H](c3csc4ccccc34)C=C(C(=O)N3CCN(Cc4ccc5c(c4)OCO5)CC3)O2)cc1)NO,inactive
6,C[C@H](CO)N1C[C@H](C)[C@H](CN(C)Cc2ccc(Cl)c(Cl)c2)Oc2c(NC(=O)CCCCCC(=O)Nc3ccccc3N)cccc2C1=O,inactive
7,C[C@@H]1CN([C@H](C)CO)C(=O)c2cccc(NS(C)(=O)=O)c2O[C@@H]1CN(C)C(=O)Nc1ccc2c(c1)OCO2,inactive
8,CO[C@@H]1[C@H](O)[C@@H](CO)O[C@H]1n1cc(C)c(N)nc1=O,inactive
9,COc1cc(CC=Cc2ccccc2)c(OC)cc1O,inactive
10,CC(C)NC(=O)Nc1ccc2c(c1)C(=O)N([C@@H](C)CO)C[C@@H](C)[C@@H](CN(C)C(=O)NC1CCCCC1)O2,inactive
11,C[C@H](CO)N1C[C@H](C)[C@H](CN(C)Cc2ccc(Cl)c(Cl)c2)Oc2c(NS(=O)(=O)c3ccccc3)cccc2C1=O,inactive
12,COC(=O)[C@@H](Cc1ccc(-n2cc(C(=O)NO)nn2)cc1)N1CC(/C=C/C2CC2)=C[C@H]1[C@H](O)Cc1ccccc1,inactive
13,C[C@H](CO)N1C[C@H](C)[C@H](CN(C)S(=O)(=O)c2ccccc2F)Oc2ncc(C#Cc3ccncc3)cc2C1=O,active
14,C=CCNc1ncnc2c1cnn2C,inactive
15,Cn1c(=O)c2c(nc(NCCO)n2C)n(C)c1=O,inactive
16,COCC(=O)N1C[C@H](C)[C@H](OC)CN(C)C(=O)c2cc(NC(=O)Nc3ccccc3)ccc2OC[C@@H]1C,inactive
17,C(=N\c1nc2ccccc2[nH]1)/N(c1ccccc1)c1ccccc1,active
18,O=c1n(-c2ccccc2)c(=O)n2n1CC(COc1ccccc1)=C1[C@@H](CCc3ccccc3)OB(O)C[C@@H]12,inactive
19,CN(C)CCCNC(=O)C[C@H]1CC[C@H]2[C@@H](COC[C@@H](O)CN2C(=O)Nc2cc(Cl)cc(Cl)c2)O1,inactive
20,C[C@@H]1CCCCO[C@H](CN(C)Cc2ccc(C(F)(F)F)cc2)[C@H](C)CN([C@@H](C)CO)C(=O)c2cc(NS(=O)(=O)c3ccc(Cl)cc3)ccc2O1,active

row,Compound,cytotoxicity call
1,C[C@H](CO)N1C[C@H](C)[C@H](CN(C)S(=O)(=O)c2ccc(F)cc2)Oc2ccc(NC(=O)CCN3CCOCC3)cc2CC1=O,inactive
2,Cn1cnc(S(=O)(=O)N2C[C@H](O)COC[C@H]3O[C@@H](CC(=O)NC4CCC4)CC[C@@H]32)c1,inactive
3,CCCCc1nn(-c2ccccc2C(F)(F)F)c(=O)n1Cc1ccc(-c2ccccc2S(=O)(=O)NC(=O)c2sccc2C)cc1,inactive
4,C[C@H](CO)N1C[C@H](C)[C@@H](CN(C)Cc2ccccc2)OCCCC[C@H](C)Oc2ccc(NC(=O)C3CCCCC3)cc2C1=O,inactive
5,C[C@@H]1CN([C@@H](C)CO)C(=O)c2cc(NC(=O)NC3CCCCC3)ccc2O[C@@H](C)CCCCO[C@H]1CN(C)Cc1ccncc1,inactive
6,CCS(=O)(=O)Nc1ccc2c(c1)C(=O)N(C)C[C@H](OC)[C@H](C)CN(CCC(F)(F)F)[C@@H](C)CO2,inactive
7,CC1CCC2C(C)C(OC(=O)CCC(=O)O)OC3OC4(C)CCC1C32OO4 (centres undefined),active
8,C[C@@H]1CCCCO[C@@H](CN(C)C(=O)Nc2cccc3ccccc23)[C@H](C)CN([C@H](C)CO)C(=O)c2cc(NC(=O)C3CCCCC3)ccc2O1,active
9,C[C@@H]1CCCCO[C@H](CN(C)C(=O)Cc2ccccc2)[C@@H](C)CN([C@H](C)CO)C(=O)c2cc(NC(=O)Nc3ccc(C(F)(F)F)cc3)ccc2O1,inactive
10,C[C@H]1CCCCO[C@H](CN(C)Cc2ccc(Cl)c(Cl)c2)[C@@H](C)CN([C@@H](C)CO)C(=O)c2cc(N(C)C)ccc2O1,inactive
11,CO[C@@H]1CN(C)C(=O)c2cc(NC(=O)Nc3ccccc3F)ccc2OC[C@H](C)N(CCC(F)(F)F)C[C@H]1C,inactive
12,C[C@H]1CN([C@@H](C)CO)S(=O)(=O)c2ccc(-c3ccncc3)cc2O[C@@H]1CN(C)C(=O)c1cccc(F)c1,inactive
13,C[C@@H]1CN([C@@H](C)CO)C(=O)Cc2cc(NC(=O)Cn3cnnn3)ccc2O[C@@H]1CN(C)CC1CC1,inactive
14,Cc1ccc(S(=O)(=O)N(C)C[C@@H]2Oc3ncc(-c4ccncc4)cc3C(=O)N([C@@H](C)CO)C[C@H]2C)cc1,inactive
15,COc1ccc(COC[C@@H](C)N2C[C@H](C)[C@H](CN(C)S(=O)(=O)c3ccc(Cl)cc3)Oc3ccc(NC(=O)NC(C)C)cc3C2=O)cc1,inactive
16,C[C@@H]1CN([C@@H](C)CO)C(=O)c2cccc(NC(=O)C3CCCCC3)c2O[C@@H]1CN(C)Cc1ccc(Oc2ccccc2)cc1,inactive
17,CN(C)C(=O)c1ccc(-c2cccc(-c3nc(C(=O)NCc4ccccc4)cc4c3[C@@H](CCO)N([S@](=O)C(C)(C)C)C4)c2)cc1,inactive
18,O=C(C[C@H]1C=C[C@@H](NC(=O)CN2CCOCC2)[C@@H](CO)O1)NC1CCCCC1,inactive
19,C[C@H](O)C#Cc1cnc2c(c1)C(=O)N([C@H](C)CO)C[C@@H](C)[C@H](CN(C)C(=O)CN1CCOCC1)O2,inactive
20,CCO[C@@H]1OC(C(=O)N2CCN(Cc3ccccc3)CC2)=C[C@H](c2cn(C(C)=O)c3ccccc23)[C@H]1CCCOC(=O)NCCCCCC(=O)NO,inactive
